In the CheMixHub viscosity set:

Which viscosity (293.15 K, 100 kPa) does the source give for `Cc1cccc2ccccc12` here?
The viscosity was 3262 ± 460 mPa·s [study A] and 3.26 ± 0.21 mPa·s [study B].

What about the viscosity (313.15 K, 100 kPa) of the same molecule?
Its viscosity is 2091 ± 260 mPa·s [study A] and 2.09 ± 0.13 mPa·s [study B].

With `CC(=O)N(C)C` as the molecule, how does the viscosity (303.15 K, 101 kPa) read?
The viscosity was 0.882 ± 0.012 mPa·s [study A] and 0.862 ± 0.011 mPa·s [study B] and 0.88 ± 0.011 mPa·s [study C] and 0.8873 ± 0.0078 mPa·s [study D] and 0.88 mPa·s [study E] and 0.8784 ± 0.023 mPa·s [study F] and 0.86 ± 0.02 mPa·s [study G].

And the viscosity (303.15 K, 101.33 kPa)?
The viscosity was 0.873 ± 0.023 mPa·s [study A] and 0.8769 ± 0.011 mPa·s, 0.8769 ± 0.0057 mPa·s [study B] and 0.878 ± 0.007 mPa·s [study C].

What about the viscosity (313.15 K, 101 kPa) of the same molecule?
Its viscosity is 0.778 ± 0.011 mPa·s [study A] and 0.758 ± 0.01 mPa·s [study B] and 0.747 ± 0.01 mPa·s [study C] and 0.7766 ± 0.0072 mPa·s [study D] and 0.7685 ± 0.02 mPa·s [study E].

± gives the uncertainty stated by the source. A number of entries come with more than one value. They are shown here; other results are not. The source may hold further records. Values that stand side by side are repeats across runs, samples, wells, individuals or studies. What stands in brackets tells the records apart. Letters count within one entry.
